# According to a collection of fitness landscapes (doi:10.1126/science.1257360):
# The other results are listed elsewhere or left out.
# B1: PhoQ; a variant is named by its letters at X, in order, P23837 (parent)
# chain: MKKLLRLFFPLSLRVRFLLATAAVVLVLSLAYGMVALIGYSVSFDKTTFRLLRGESNLFYTLAKWENNKLHVELPENIDKQSPTMTLIYDENGQLLWAQRDVPWLMKMIQPDWLKSNGFHEIEADVNDTSLLLSGDHSIQQQLQEVREDDDDAEMTHSVAVNVYPATSRMPKLTIVVVDTIPVELKSSYMVWSWFIYVLSANLLLVIPLLWVAAWWSLRPIEALAKEVRELEEHNRELLNPATTRELTSLVRNLNRLLKSERERYDKYRTTLTDLTHSLKTPLXXLQXXLRSLRSEKMSVSDAEPVMLEQISRISQQIGYYLHRASMRGGTLLSRELHPVAPLLDNLTSALNKVYQRKGVNISLDISPEISFVGEQNDFVEVMGNVLDNACKYCLEFVEISARQTDEHLYIVVEDDGPGIPLSKREVIFDRGQRVDTLRPGQGVGLAVAREITEQYEGKIVAGESMLGGARMEVIFGRQHSAPKDE
# Variants of: B1
# Assay: enrichment ratio after two sorts for PhoP signalling (ratio (wild type AVST 3.29)); higher = more functional
# Settings: with PhoP (E. coli)
row,Variant,enrichment ratio
1,WYEH,≤ 0.25
2,NSES,≤ 0.25
3,AEVE,7.98
4,EMKA,≤ 0.25
5,RFAV,≤ 0.25
6,GTPR,≤ 0.25
7,FECF,≤ 0.25
8,MWNT,≤ 0.25
9,KDDM,≤ 0.25
10,VYYI,≤ 0.25
11,SILD,≤ 0.25
12,PFWR,≤ 0.25
13,WSQW,≤ 0.25
14,NQYC,≤ 0.25
15,HEGF,≤ 0.25
16,AARQ,≤ 0.25
17,PQTH,≤ 0.25
18,EPQP,≤ 0.25
19,WTWT,≤ 0.25
20,KQHT,≤ 0.25
21,WECL,≤ 0.25
22,QLDD,≤ 0.25
23,MDYY,≤ 0.25
24,GYDQ,≤ 0.25
25,QFFK,≤ 0.25

row,Variant,enrichment ratio
1,SASE,9.07
2,GMFF,≤ 0.25
3,EWQP,≤ 0.25
4,EIWN,≤ 0.25
5,NFWG,≤ 0.25
6,GCDV,≤ 0.25
7,AMIY,≤ 0.25
8,YEDG,≤ 0.25
9,EDWT,≤ 0.25
10,TAFF,0.622
11,WVTK,≤ 0.25
12,WAYH,≤ 0.25
13,WNFS,≤ 0.25
14,FDDK,≤ 0.25
15,EMDR,≤ 0.25
16,IKTF,0.442
17,PWKY,≤ 0.25
18,NLIK,≤ 0.25
19,IIWP,≤ 0.25
20,YRCI,≤ 0.25
21,AQNQ,≤ 0.25
22,NCYN,≤ 0.25
23,HCDT,≤ 0.25
24,EGQL,≤ 0.25
25,KLTF,≤ 0.25

row,Variant,enrichment ratio
1,TNCL,0.276
2,YHFV,≤ 0.25
3,VNEH,≤ 0.25
4,PTIW,≤ 0.25
5,FFMV,1.46
6,RVWN,≤ 0.25
7,FMPC,≤ 0.25
8,PQPW,≤ 0.25
9,EGDG,≤ 0.25
10,FYTH,≤ 0.25
11,INGV,≤ 0.25
12,EAYA,≤ 0.25
13,ITKR,≤ 0.25
14,NNLG,≤ 0.25
15,THDT,≤ 0.25
16,HRSL,≤ 0.25
17,VLKM,≤ 0.25
18,DTIN,≤ 0.25
19,VMCI,≤ 0.25
20,HKYE,≤ 0.25
21,WHFT,≤ 0.25
22,LMSI,≤ 0.25
23,AFHD,≤ 0.25
24,SVSI,8.37
25,QQKV,≤ 0.25

row,Variant,enrichment ratio
1,ARAW,≤ 0.25
2,PAFG,≤ 0.25
3,GCNR,≤ 0.25
4,GELP,≤ 0.25
5,NVYC,≤ 0.25
6,RYTG,≤ 0.25
7,DTHV,≤ 0.25
8,ADTR,≤ 0.25
9,VCLL,6.51
10,RWVV,≤ 0.25
11,RQHI,≤ 0.25
12,LCLR,0.551
13,LIWA,≤ 0.25
14,PYKA,≤ 0.25
15,DLGE,≤ 0.25
16,LFIQ,≤ 0.25
17,LVAW,0.304
18,DQYS,≤ 0.25
19,SCYW,≤ 0.25
20,SYQV,0.277
21,AHQN,≤ 0.25
22,NWNT,≤ 0.25
23,RVFL,≤ 0.25
24,SRFE,≤ 0.25
25,SHMY,5.5

row,Variant,enrichment ratio
1,QYFT,≤ 0.25
2,GIQL,0.671
3,TEKQ,≤ 0.25
4,TAPG,≤ 0.25
5,TLVP,≤ 0.25
6,FNLF,≤ 0.25
7,RLFC,≤ 0.25
8,THHF,≤ 0.25
9,RWQV,≤ 0.25
10,ENFE,≤ 0.25
11,WLYF,≤ 0.25
12,DMHY,≤ 0.25
13,TMWT,≤ 0.25
14,RDVD,≤ 0.25
15,TMCN,3.57
16,HFKR,≤ 0.25
17,DTYV,≤ 0.25
18,EDVA,≤ 0.25
19,KHII,≤ 0.25
20,ARLL,8.47
21,FQTL,1.49
22,SEYK,≤ 0.25
23,FMNC,≤ 0.25
24,LYYT,≤ 0.25
25,RKFR,≤ 0.25

row,Variant,enrichment ratio
1,MYEW,≤ 0.25
2,ETYS,≤ 0.25
3,NVST,≤ 0.25
4,IACE,≤ 0.25
5,TIMA,8.98
6,SSDS,≤ 0.25
7,QACY,≤ 0.25
8,PASN,2.18
9,PFWC,≤ 0.25
10,GPQL,≤ 0.25
11,FHKC,≤ 0.25
12,YPHK,≤ 0.25
13,RKGN,≤ 0.25
14,SNCW,10.3
15,DNYQ,≤ 0.25
16,HWIR,≤ 0.25
17,NVWV,≤ 0.25
18,QPTY,≤ 0.25
19,NIAV,≤ 0.25
20,IWRS,≤ 0.25
21,FCMI,33.7
22,VMHT,≤ 0.25
23,ILRL,≤ 0.25
24,TLCS,5.12
25,KKGS,≤ 0.25

row,Variant,enrichment ratio
1,TMMH,5.83
2,LFVK,≤ 0.25
3,MGTY,≤ 0.25
4,MHYL,≤ 0.25
5,DPLK,≤ 0.25
6,TQKM,≤ 0.25
7,VCPG,≤ 0.25
8,MYNA,≤ 0.25
9,TDRL,≤ 0.25
10,QIHT,≤ 0.25
11,RQRS,≤ 0.25
12,SNVH,1.27
13,AECN,6.19
14,PAMM,≤ 0.25
15,QDDT,≤ 0.25
16,QYMS,≤ 0.25
17,TEHC,22.1
18,MEWC,≤ 0.25
19,YAPM,≤ 0.25
20,SALW,1.24
21,STYR,≤ 0.25
22,KLFD,≤ 0.25
23,LGKS,≤ 0.25
24,GWHC,≤ 0.25
25,EYYC,≤ 0.25

row,Variant,enrichment ratio
1,QILK,≤ 0.25
2,IEFG,≤ 0.25
3,NHVM,≤ 0.25
4,PLDE,≤ 0.25
5,SMNY,3.39
6,YYFD,≤ 0.25
7,PQRM,≤ 0.25
8,KNLP,≤ 0.25
9,IKYF,≤ 0.25
10,HQGT,≤ 0.25
11,ETDV,≤ 0.25
12,RDFN,≤ 0.25
13,ADFA,≤ 0.25
14,FQGL,≤ 0.25
15,KWVI,≤ 0.25
16,LQNH,≤ 0.25
17,SPNF,≤ 0.25
18,TELY,15.5
19,ACIL,10.3
20,AMYC,0.507
